Assay results reported in the supplement of paper PMC12217912.
This is one part of the list. Sequences were assembled here from the parent chain. Values near 0.05 are background.

B1: TEV protease; numbered along this chain (parent)
chain: MGESLFKGPRDYNPISSSICHLTNESDGHTTSLYGIGFGPFIITNKHLFRRNNGTLVVQSLHGVFKVKDTTTLQQHLVDGRDMIIIRMPKDFPPFPQKLKFREPQREERICLVTTNFQTKSMSSMVSDTSCTFPSGDGIFWKHWIQTKDGQCGSPLVSTRDGFIVGIHSASNFTNTNNYFTSVPKNFMELLTNQEAQQWVSGWRLNADSVLWGGHKVFMVKPEEPFQPVKEATQL

Variants of: B1
Experiment: raw area under fraction-flipped curve 0-4 h after induction (AUC4h, not background-subtracted), DNA-recorder readout of cleavage of the substrate (dimensionless); higher = more cleavage of the substrate by the protease variant
Details: temperature: 34 °C; time window: 0-4 h after rhamnose induction
Experimental: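 In vivo DNA recorder in E. coli TOP10(DE3) ΔrhaA at 34 °C. Each TEVp single-site mutant (parent TEVp 0) is paired with a single-site variant of the 7-mer TEVs (canonical ENLYFQ|S). The substrate sits between flexible linkers in a Bxb1-sfGFP-TEVs-SsrA fusion, so cleavage stabilises Bxb1 and speeds flipping of a recombination array, read by NGS. The value is the raw area under the fraction-flipped curve over 0-4 h after rhamnose induction (AUC4h), with ≥20 reads per time point. It is not background-subtracted; inactive controls average about 0.047.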
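Note: Bxb1 expression induced with 0.2% (w/v) L-rhamnose at OD600 near 0.5, cultures sampled hourly, flipped fraction per protease–substrate barcode pair counted by paired-end Illumina sequencing.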

Variant | area with substrate CNLYFQS | area with substrate DNLYFQS | area with substrate FNLYFQS | area with substrate HNLYFQS | area with substrate KNLYFQS | area with substrate LNLYFQS | area with substrate MNLYFQS | area with substrate NNLYFQS | area with substrate SNLYFQS | area with substrate TNLYFQS | area with substrate VNLYFQS | area with substrate WNLYFQS | area with substrate YNLYFQS | area with substrate GNLYFQS | area with substrate PNLYFQS | area with substrate INLYFQS | area with substrate QNLYFQS | area with substrate RNLYFQS
K221S | 0.0587 | 0.0518 | 0.0637 | 0.0421 | 0.0556 | 0.0492 | 0.0634 | 0.0643 | 0.0466 | 0.0613 | 0.0676 | 0.0569 | 0.0596 |  |  |  |  | 
V229E | 0.109 | 0.115 |  | 0.0668 |  | 0.0666 | 0.0679 | 0.0673 |  | 0.0677 |  | 0.0655 |  | 0.0635 | 0.0912 |  |  | 
S17P | 0.0685 | 0.0649 | 0.0571 | 0.0647 |  | 0.065 | 0.0686 | 0.0713 | 0.0648 |  | 0.0607 | 0.0563 | 0.0303 | 0.0657 | 0.0603 | 0.123 |  | 
V113M | 0.0692 | 0.0698 |  | 0.0426 | 0.0628 | 0.0736 | 0.0471 | 0.0587 | 0.0606 | 0.056 | 0.0622 |  | 0.0598 | 0.0607 |  | 0.0681 |  | 
V113S | 0.0513 | 0.0525 |  | 0.0528 |  | 0.0449 | 0.0615 |  | 0.0473 | 0.0449 | 0.0692 | 0.0411 |  |  | 0.0465 | 0.047 |  | 
F187R | 0.0513 | 0.071 |  | 0.0487 |  | 0.0634 | 0.0497 | 0.0462 | 0.049 | 0.0446 | 0.0406 | 0.0434 |  | 0.0382 | 0.0521 |  |  | 
N116P | 0.0809 | 0.0766 | 0.0696 | 0.0656 | 0.0719 | 0.0524 | 0.0768 | 0.0561 | 0.0105 | 0.0649 |  | 0.0561 | 0.0595 | 0.073 | 0.0672 | 0.0877 |  | 
L22S | 0.042 | 0.0444 | 0.0804 | 0.0396 | 0.0532 | 0.0453 | 0.0528 | 0.0516 | 0.0605 | 0.0464 | 0.0492 | 0.0612 | 0.0486 | 0.0361 | 0.0479 |  | 0.0292 | 
E189N | 0.0414 | 0.0542 | 0.0743 | 0.0624 | 0.0734 | 0.0662 |  |  | 0.0704 | 0.059 | 0.062 | 0.0565 | 0.0737 |  | 0.0691 | 0.073 |  | 
G39Y | 0.0494 | 0.0433 | 0.0696 | 0.0251 |  | 0.0462 | 0.0521 |  | 0.024 | 0.0482 |  | 0.0365 | 0.0368 |  |  |  | 0.0467 | 0.0383
F140W | 0.0816 | 0.0362 |  | 0.0499 |  |  |  |  |  |  |  |  | 0.0711 |  |  |  |  | 
F140V | 0.0637 | 0.0601 | 0.0708 | 0.0507 | 0.0581 | 0.0616 | 0.0661 | 0.0652 | 0.0565 | 0.0571 |  | 0.0627 | 0.0543 | 0.0806 | 0.0629 | 0.0534 |  | 0.0558
F140L | 0.0538 | 0.0621 |  | 0.0617 | 0.0683 | 0.0513 | 0.0663 |  | 0.0554 | 0.0676 | 0.0532 | 0.0555 | 0.0654 |  |  | 0.0528 |  | 
S4I | 0.0682 | 0.0834 | 0.0409 | 0.0702 |  | 0.0675 | 0.0597 |  | 0.0798 |  | 0.0772 | 0.058 | 0.0683 | 0.0674 | 0.0976 | 0.0866 |  | 0.068
T55C | 0.0763 | 0.0557 |  | 0.0431 | 0.0588 | 0.0672 | 0.0648 |  |  | 0.0636 |  | 0.0584 | 0.0593 |  |  | 0.0636 |  | 
V57N | 0.0785 | 0.0393 | 0.0862 | 0.0526 |  |  |  | 0.086 | 0.0775 | 0.0628 |  | 0.0568 | 0.0587 | 0.0527 | 0.057 |  |  | 
V57S | 0.0506 | 0.065 | 0.0698 | 0.0475 |  | 0.026 | 0.0711 |  |  |  | 0.0556 | 0.0504 | 0.0673 |  | 0.0731 |  |  | 0.0754
G37A | 0.0646 | 0.102 |  | 0.053 | 0.0638 |  |  |  | 0.0659 | 0.0737 |  | 0.061 |  |  | 0.0709 |  |  | 
R10D | 0.0674 | 0.0961 |  |  | 0.0691 | 0.0478 | 0.0571 |  | 0.0688 | 0.0636 | 0.066 | 0.0588 | 0.0614 | 0.0692 |  | 0.0639 |  | 0.0827
Q59K | 0.0729 | 0.0634 | 0.0667 | 0.064 |  |  |  | 0.05 |  | 0.0652 |  | 0.0669 | 0.0628 | 0.0681 | 0.0709 |  |  | 0.047
Q59G | 0.0718 | 0.0956 |  | 0.0649 |  |  |  | 0.0595 | 0.0536 | 0.0641 |  |  | 0.0712 | 0.0589 | 0.0659 | 0.055 |  | 
V183D | 0.0403 | 0.0551 |  | 0.0526 |  | 0.0468 | 0.0526 | 0.0455 | 0.0579 | 0.0509 |  | 0.0472 | 0.0459 | 0.0511 | 0.0618 | 0.0474 |  | 
Q198L | 0.0682 | 0.0518 | 0.0553 |  |  |  | 0.0734 |  |  | 0.0534 |  | 0.0618 |  | 0.0712 | 0.0576 | 0.0603 | 0.0554 | 
P89Y | 0.0692 | 0.0673 |  | 0.0574 | 0.054 | 0.0572 | 0.0422 |  | 0.0508 | 0.0549 |  | 0.0412 | 0.0409 | 0.063 | 0.0529 | 0.0502 | 0.0517 | 
V210N | 0.0571 | 0.0761 |  | 0.067 |  | 0.0612 | 0.0551 | 0.0565 |  | 0.0588 |  | 0.0654 | 0.065 | 0.0641 | 0.058 | 0.0556 |  | 
Q194H | 0.0693 | 0.0468 | 0.0667 | 0.0582 | 0.0748 | 0.0741 |  | 0.0733 | 0.059 | 0.0589 | 0.0792 | 0.0548 | 0.0726 | 0.0584 | 0.0635 |  |  | 
S169I | 0.0564 | 0.0655 | 0.0661 |  | 0.0552 | 0.0586 | 0.0554 | 0.0674 | 0.0722 | 0.0609 |  | 0.0626 |  |  | 0.0571 | 0.0594 | 0.0524 | 0.0448
H29I | 0.0797 | 0.0321 | 0.0697 | 0.0732 | 0.0518 | 0.0644 | 0.0698 |  |  | 0.0726 |  | 0.0513 |  | 0.0644 | 0.0656 |  |  | 
S158Y | 0.0462 | 0.0474 | 0.0399 | 0.0535 |  | 0.0477 | 0.0433 |  | 0.0537 | 0.0647 | 0.0417 | 0.052 |  |  | 0.0725 |  |  | 
